Assay results from a collection of fitness landscapes (doi:10.1016/j.celrep.2020.107928).
In all, about 81,000 sequences were measured (“one-hybrid fitness for binding NBS DNA”: median about -0.1, highest 2% from about 0.36 on). Some of the results follow.

B1: Caulobacter ParB omega fusion; a variant is named by its letters at X, in order, B8GW30 (parent)
chain: MESVVVGEPGMSEGRRGLGRGLSALLGEVDAAPAQAPGEQLGGSREAPIEILQRNPDQPRRTFREEDLEDLSNSIREKGVLQPILVRPSPDTAGEYQIVAGERAWRAAQRAGLKTVPIMVRELDDLAVLEIGIIENVQRADLNVLEEALSYKVLMEKFERTQENIAQTIGKSXSHVANXMRLLXLPDEVQSYLVSGELTAXHARAIAAAADPVALAKQIIEGGLSVRETEALARKAPNLSAGKSKGGRPPRVKDTDTQALESDLSSVLGLDVSIDHRGSTGTLTITYATLEQLDDLCNRLTRGI

Variants of: B1
Assay: one-hybrid fitness for binding NBS DNA (the Noc-binding site; scaled: cognate 1, non-cognate 0); higher = stronger binding
Conditions: with NBS DNA site
In short: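 Selection: bacterial one-hybrid in E. coli USO, HIS3 reporter with the site 19 bp from the promoter, 48 hours at 37°C on M9-minus-histidine plus 0.1 mM IPTG and 5 mM 3-AT. Libraries were Caulobacter ParB with four randomised specificity codons, sequenced on Illumina before and after selection. Fitness is the rescaled log change in variant-to-wild-type read ratio, anchored to the cognate and non-cognate sites.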

| Variant | one-hybrid fitness for binding NBS DNA |
| --- | --- |
| WCNL | ≤ 0.2 |
| QPCL | ≤ 0.2 |
| YASA | ≤ 0.2 |
| VHII | ≤ 0.2 |
| RFVC | ≤ 0.2 |
| YPAV | ≤ 0.2 |
| QTAQ | 0.251 |
| YNKS | ≤ 0.2 |
| RMDP | ≤ 0.2 |
| CFKG | ≤ 0.2 |
| NESM | ≤ 0.2 |
| NRVM | ≤ 0.2 |
| STSD | ≤ 0.2 |
| SYGM | ≤ 0.2 |
| VGER | ≤ 0.2 |
| DLYD | ≤ 0.2 |
| TGGT | ≤ 0.2 |
| REYM | ≤ 0.2 |
| IPRG | ≤ 0.2 |
| LPLY | ≤ 0.2 |
| HVWM | ≤ 0.2 |
| AGDD | ≤ 0.2 |
| ASQY | ≤ 0.2 |
| KHQP | ≤ 0.2 |
| MRRK | ≤ 0.2 |

| Variant | one-hybrid fitness for binding NBS DNA |
| --- | --- |
| IHMM | ≤ 0.2 |
| PSFT | ≤ 0.2 |
| VPDC | ≤ 0.2 |
| WGCS | ≤ 0.2 |
| KYAG | ≤ 0.2 |
| NKTG | ≤ 0.2 |
| WPNR | ≤ 0.2 |
| SGSG | ≤ 0.2 |
| AKEK | ≤ 0.2 |
| NFTQ | ≤ 0.2 |
| PEMM | ≤ 0.2 |
| YYNE | ≤ 0.2 |
| RCWS | 0.388 |
| NSHR | 0.214 |
| ARAS | ≤ 0.2 |
| TESV | ≤ 0.2 |
| VSKT | ≤ 0.2 |
| GHPC | ≤ 0.2 |
| DPMM | ≤ 0.2 |
| HPNI | ≤ 0.2 |
| WHGK | ≤ 0.2 |
| QSNG | ≤ 0.2 |
| VKHR | ≤ 0.2 |
| IYVV | ≤ 0.2 |
| LKSH | ≤ 0.2 |

| Variant | one-hybrid fitness for binding NBS DNA |
| --- | --- |
| IFNS | ≤ 0.2 |
| QIWT | 0.255 |
| TYVH | ≤ 0.2 |
| QYGK | ≤ 0.2 |
| FDEG | ≤ 0.2 |
| LGNF | ≤ 0.2 |
| NKRY | ≤ 0.2 |
| EPIY | ≤ 0.2 |
| DKKR | ≤ 0.2 |
| ECGG | ≤ 0.2 |
| VFQE | ≤ 0.2 |
| TLAH | ≤ 0.2 |
| YLKV | ≤ 0.2 |
| QSQW | ≤ 0.2 |
| GSES | ≤ 0.2 |
| TECW | ≤ 0.2 |
| EVTR | ≤ 0.2 |
| YRYW | ≤ 0.2 |
| VKSR | ≤ 0.2 |
| YYAR | ≤ 0.2 |
| RSVN | ≤ 0.2 |
| PHVF | ≤ 0.2 |
| LWRN | ≤ 0.2 |
| QFIS | ≤ 0.2 |
| LPCC | ≤ 0.2 |

| Variant | one-hybrid fitness for binding NBS DNA |
| --- | --- |
| LRQS | ≤ 0.2 |
| TGTG | ≤ 0.2 |
| TMIV | ≤ 0.2 |
| HKEC | ≤ 0.2 |
| YFCS | ≤ 0.2 |
| HICS | ≤ 0.2 |
| KEPR | ≤ 0.2 |
| GDAL | ≤ 0.2 |
| EFNS | ≤ 0.2 |
| KKNI | ≤ 0.2 |
| TDYY | ≤ 0.2 |
| RWIL | ≤ 0.2 |
| VEYW | ≤ 0.2 |
| NCKR | 0.222 |
| PVVY | ≤ 0.2 |
| MGVR | ≤ 0.2 |
| LRRW | ≤ 0.2 |
| MVGR | ≤ 0.2 |
| TSNF | ≤ 0.2 |
| HKDY | ≤ 0.2 |
| MHTG | ≤ 0.2 |
| HCVY | ≤ 0.2 |
| QKCL | ≤ 0.2 |
| LKGR | ≤ 0.2 |
| RSIY | ≤ 0.2 |

| Variant | one-hybrid fitness for binding NBS DNA |
| --- | --- |
| TTSF | ≤ 0.2 |
| SHAD | ≤ 0.2 |
| GPAE | ≤ 0.2 |
| GPSM | ≤ 0.2 |
| CRSY | ≤ 0.2 |
| SKTM | ≤ 0.2 |
| VHWR | ≤ 0.2 |
| SSLE | ≤ 0.2 |
| WPPS | ≤ 0.2 |
| QCTP | ≤ 0.2 |
| RAHI | ≤ 0.2 |
| ALPP | ≤ 0.2 |
| DAHG | ≤ 0.2 |
| SWDV | ≤ 0.2 |
| PMQW | ≤ 0.2 |
| ARMG | ≤ 0.2 |
| RVKH | 0.321 |
| GFRR | ≤ 0.2 |
| KSES | ≤ 0.2 |
| DSPY | ≤ 0.2 |
| YGHR | ≤ 0.2 |
| PAWS | ≤ 0.2 |
| PVGY | ≤ 0.2 |
| CWYS | ≤ 0.2 |
| WYNE | ≤ 0.2 |

| Variant | one-hybrid fitness for binding NBS DNA |
| --- | --- |
| SDIL | ≤ 0.2 |
| GIES | ≤ 0.2 |
| KPKL | ≤ 0.2 |
| KKIT | ≤ 0.2 |
| WMST | ≤ 0.2 |
| WYKS | ≤ 0.2 |
| MSDT | ≤ 0.2 |
| SWAI | ≤ 0.2 |
| RYDL | ≤ 0.2 |
| RTWM | ≤ 0.2 |
| KCTH | ≤ 0.2 |
| NDAC | ≤ 0.2 |
| EASE | ≤ 0.2 |
| SWHM | ≤ 0.2 |
| GVRN | ≤ 0.2 |
| ISNV | ≤ 0.2 |
| WRDE | ≤ 0.2 |
| NHWI | ≤ 0.2 |
| GVGL | 0.285 |
| EVSC | ≤ 0.2 |
| VTEN | ≤ 0.2 |
| RCNH | 0.311 |
| VKCE | ≤ 0.2 |
| RTDG | ≤ 0.2 |
| QKNS | 0.539 |

| Variant | one-hybrid fitness for binding NBS DNA |
| --- | --- |
| IWGR | ≤ 0.2 |
| CGSS | ≤ 0.2 |
| HHVC | ≤ 0.2 |
| GWCR | ≤ 0.2 |
| ETHG | ≤ 0.2 |
| QTNS | 0.629 |
| AHTS | ≤ 0.2 |
| LLLS | ≤ 0.2 |
| SAPI | ≤ 0.2 |
| TATM | ≤ 0.2 |
| HNGR | ≤ 0.2 |
| WYAR | ≤ 0.2 |
| DGAA | ≤ 0.2 |
| ADRI | ≤ 0.2 |
| DGVL | ≤ 0.2 |
| ESSR | ≤ 0.2 |
| RLCI | ≤ 0.2 |
| CKKM | ≤ 0.2 |
| PGHI | ≤ 0.2 |
| DVSY | ≤ 0.2 |
| EKIC | ≤ 0.2 |
| DDWN | ≤ 0.2 |
| KKMD | ≤ 0.2 |
| WWGS | ≤ 0.2 |
| PFSN | ≤ 0.2 |

| Variant | one-hybrid fitness for binding NBS DNA |
| --- | --- |
| EMIG | ≤ 0.2 |
| VNAR | ≤ 0.2 |
| EYKY | ≤ 0.2 |
| LRYA | ≤ 0.2 |
| SAVF | ≤ 0.2 |
| INRM | ≤ 0.2 |
| WGDS | ≤ 0.2 |
| FVGR | ≤ 0.2 |
| IAKT | ≤ 0.2 |
| QPLS | ≤ 0.2 |
| GYNP | ≤ 0.2 |
| YPVQ | ≤ 0.2 |
| DYTE | ≤ 0.2 |
| SPQE | ≤ 0.2 |
| CSFV | ≤ 0.2 |
| GIKG | ≤ 0.2 |
| ITTV | ≤ 0.2 |
| RIQW | ≤ 0.2 |
| EKKN | ≤ 0.2 |
| FTNF | ≤ 0.2 |
